This is one part of the list. Rule as the data show it: active = 3.2 or more and inactive = the rest. The signal is at background level for most entries.
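Also: displayed peptides selected on beads carrying the immobilized SH2 domain, with library peptides lacking any tyrosine serving as negative controls.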

One assay addresses SHP2 C-SH2 domain E139D. Nature of the assay: enrichment score (SH2-bound / input frequency) (ratio); bacterial display of known human phosphotyrosine sites (pTyr-Var adds point mutants) read by sequencing; higher = stronger binding; tyrosines were phosphorylated by kinases first. The note with it: peptide library: pTyr-Var.
Turning to VYPATYHPDHW [EFCAB12_Y544], the enrichment score was inactive: 0.724.

For the molecule IKNSGYISRFL [EIF2AK3_Y585_YF], the enrichment score was inactive: 1.39.

As to VYSATYHPDHW [EFCAB12_Y544_P541S], the enrichment score was inactive: 1.31.

In the case of AFGTVYKGLWI [EGFR_Y727], the enrichment score was inactive: 1.17.

Regarding INITIYGKTFR [EFHC1_Y177], the enrichment score was inactive: 1.33.

For KAEQLYIGVTV [EFHC2_Y509_E507Q], the enrichment score is inactive: 1.07.

As to KLQKYYRQNPD [EHHADH_Y683], the enrichment score was inactive: 0.97.

On to EKLQKYYRKNP [EHHADH_Y682_Q685K], for which the enrichment score is inactive: 1.04.

In the case of MVTSGYKAKMI [EFR3A_Y447_T451M], the enrichment score is inactive: 0.712.

Turning to KAEELYIGVTV [EFHC2_Y509], the enrichment score is inactive: 0.676.

Consider IKGNMYFENSF [EGFR_Y112_R108K_YF], for which the enrichment score was inactive: 1.02.

Consider ISTAGYSFPEL [EDAR_Y406_I408F], for which the enrichment score was inactive: 0.934.

Turning to FGSVDYWEKFF [EEF1AKNMT_Y16], the enrichment score was inactive: 1.2.

Take KGNMYYENSYA [EGFR_Y113_R108K]: the enrichment score is inactive: 1.29.

With KLQKFYRQNPD [EHHADH_Y683_YF], the enrichment score is inactive: 0.801.

For ILDEAYVMASM [EGFR_Y764_V769M], the enrichment score is inactive: 0.603.

As for SSLMKYQQNVS [EGFEM1P_Y160_P157L], the enrichment score was inactive: 0.969.

As to PRLMLYNPTTF [EGFR_Y270_P266R_YF], the enrichment score is inactive: 1.16.

On to AEEKEYHAEGG [EGFR_Y869], for which the enrichment score was inactive: 0.586.

The target in another assay is SHP2 C-SH2 domain wild-type. The assay is described as above. The note with it: peptide library: pTyr-Var.
As to VYPATYHPDHW [EFCAB12_Y544], the enrichment score is inactive: 0.906.

Consider IKNSGYISRFL [EIF2AK3_Y585_YF], for which the enrichment score was inactive: 1.37.

On to VYSATYHPDHW [EFCAB12_Y544_P541S], for which the enrichment score is inactive: 1.16.

As to AFGTVYKGLWI [EGFR_Y727], the enrichment score is inactive: 1.1.

Take INITIYGKTFR [EFHC1_Y177]: the enrichment score is inactive: 1.6.

Turning to KAEQLYIGVTV [EFHC2_Y509_E507Q], the enrichment score was inactive: 1.3.

On to KLQKYYRQNPD [EHHADH_Y683], for which the enrichment score was inactive: 0.81.

In the case of EKLQKYYRKNP [EHHADH_Y682_Q685K], the enrichment score was inactive: 0.851.

With MVTSGYKAKMI [EFR3A_Y447_T451M], the enrichment score was inactive: 0.728.

For KAEELYIGVTV [EFHC2_Y509], the enrichment score is inactive: 1.

Consider IKGNMYFENSF [EGFR_Y112_R108K_YF], for which the enrichment score is inactive: 0.916.

For the molecule ISTAGYSFPEL [EDAR_Y406_I408F], the enrichment score is inactive: 0.886.

For the molecule FGSVDYWEKFF [EEF1AKNMT_Y16], the enrichment score was inactive: 1.11.

Take KGNMYYENSYA [EGFR_Y113_R108K]: the enrichment score was inactive: 1.18.

With KLQKFYRQNPD [EHHADH_Y683_YF], the enrichment score was inactive: 0.715.

Turning to ILDEAYVMASM [EGFR_Y764_V769M], the enrichment score was inactive: 0.691.

Regarding SSLMKYQQNVS [EGFEM1P_Y160_P157L], the enrichment score is inactive: 0.795.

Regarding PRLMLYNPTTF [EGFR_Y270_P266R_YF], the enrichment score was inactive: 0.94.

On to AEEKEYHAEGG [EGFR_Y869], for which the enrichment score is inactive: 0.588.

The next assay has as its target SHP2 N-SH2 domain L43F. The assay is described as above. The following applies: peptide library: pTyr-Var.
In the case of VYPATYHPDHW [EFCAB12_Y544], the enrichment score was inactive: 0.8.

Turning to IKNSGYISRFL [EIF2AK3_Y585_YF], the enrichment score is inactive: 1.26.

On to VYSATYHPDHW [EFCAB12_Y544_P541S], for which the enrichment score is inactive: 0.942.

As to AFGTVYKGLWI [EGFR_Y727], the enrichment score is inactive: 0.829.

In the case of INITIYGKTFR [EFHC1_Y177], the enrichment score is inactive: 1.77.

As for KAEQLYIGVTV [EFHC2_Y509_E507Q], the enrichment score is inactive: 1.3.

As to KLQKYYRQNPD [EHHADH_Y683], the enrichment score is inactive: 0.712.

For EKLQKYYRKNP [EHHADH_Y682_Q685K], the enrichment score is inactive: 0.87.

Regarding MVTSGYKAKMI [EFR3A_Y447_T451M], the enrichment score was inactive: 0.547.

With KAEELYIGVTV [EFHC2_Y509], the enrichment score is inactive: 0.764.

Take IKGNMYFENSF [EGFR_Y112_R108K_YF]: the enrichment score is inactive: 0.782.

Consider ISTAGYSFPEL [EDAR_Y406_I408F], for which the enrichment score was inactive: 0.908.

On to FGSVDYWEKFF [EEF1AKNMT_Y16], for which the enrichment score is inactive: 1.19.

Take KGNMYYENSYA [EGFR_Y113_R108K]: the enrichment score was inactive: 1.34.

KLQKFYRQNPD [EHHADH_Y683_YF]: the enrichment score is inactive: 0.851.

For ILDEAYVMASM [EGFR_Y764_V769M], the enrichment score was inactive: 0.644.

As to SSLMKYQQNVS [EGFEM1P_Y160_P157L], the enrichment score is inactive: 0.876.

With PRLMLYNPTTF [EGFR_Y270_P266R_YF], the enrichment score is inactive: 1.

For the molecule AEEKEYHAEGG [EGFR_Y869], the enrichment score is inactive: 0.582.

Another assay concerns the target SHP2 N-SH2 domain T42A. The assay is described as above. The note with it: peptide library: pTyr-Var.
Consider VYPATYHPDHW [EFCAB12_Y544], for which the enrichment score was inactive: 0.723.

As for IKNSGYISRFL [EIF2AK3_Y585_YF], the enrichment score was inactive: 1.22.

In the case of VYSATYHPDHW [EFCAB12_Y544_P541S], the enrichment score is inactive: 1.2.

AFGTVYKGLWI [EGFR_Y727]: the enrichment score was inactive: 1.97.

For INITIYGKTFR [EFHC1_Y177], the enrichment score was inactive: 1.18.

In the case of KAEQLYIGVTV [EFHC2_Y509_E507Q], the enrichment score was inactive: 1.04.

As for KLQKYYRQNPD [EHHADH_Y683], the enrichment score is inactive: 0.737.

As to EKLQKYYRKNP [EHHADH_Y682_Q685K], the enrichment score was inactive: 0.829.

Take MVTSGYKAKMI [EFR3A_Y447_T451M]: the enrichment score is inactive: 0.638.

As for KAEELYIGVTV [EFHC2_Y509], the enrichment score is inactive: 0.719.

Regarding IKGNMYFENSF [EGFR_Y112_R108K_YF], the enrichment score is inactive: 0.987.

As to ISTAGYSFPEL [EDAR_Y406_I408F], the enrichment score was inactive: 1.07.

As to FGSVDYWEKFF [EEF1AKNMT_Y16], the enrichment score was active: 3.22.

KGNMYYENSYA [EGFR_Y113_R108K]: the enrichment score was inactive: 1.22.

With KLQKFYRQNPD [EHHADH_Y683_YF], the enrichment score was inactive: 0.663.

For the molecule ILDEAYVMASM [EGFR_Y764_V769M], the enrichment score is inactive: 0.489.

Consider SSLMKYQQNVS [EGFEM1P_Y160_P157L], for which the enrichment score is inactive: 0.703.

Turning to PRLMLYNPTTF [EGFR_Y270_P266R_YF], the enrichment score is inactive: 1.03.

For AEEKEYHAEGG [EGFR_Y869], the enrichment score was inactive: 0.651.

For a further assay, the target named is SHP2 N-SH2 domain T52S. The assay is described as above. The following applies: peptide library: pTyr-Var.
For the molecule VYPATYHPDHW [EFCAB12_Y544], the enrichment score is inactive: 0.999.

IKNSGYISRFL [EIF2AK3_Y585_YF]: the enrichment score was inactive: 1.23.

VYSATYHPDHW [EFCAB12_Y544_P541S]: the enrichment score is inactive: 1.26.

For AFGTVYKGLWI [EGFR_Y727], the enrichment score is inactive: 1.25.

Turning to INITIYGKTFR [EFHC1_Y177], the enrichment score is inactive: 1.05.

Regarding KAEQLYIGVTV [EFHC2_Y509_E507Q], the enrichment score is inactive: 1.06.

As for KLQKYYRQNPD [EHHADH_Y683], the enrichment score was inactive: 0.803.

As to EKLQKYYRKNP [EHHADH_Y682_Q685K], the enrichment score is inactive: 0.81.

As for MVTSGYKAKMI [EFR3A_Y447_T451M], the enrichment score is inactive: 0.565.

With KAEELYIGVTV [EFHC2_Y509], the enrichment score is inactive: 0.681.

Consider IKGNMYFENSF [EGFR_Y112_R108K_YF], for which the enrichment score is inactive: 0.972.

In the case of ISTAGYSFPEL [EDAR_Y406_I408F], the enrichment score is inactive: 0.882.

With FGSVDYWEKFF [EEF1AKNMT_Y16], the enrichment score was inactive: 1.27.

Consider KGNMYYENSYA [EGFR_Y113_R108K], for which the enrichment score was inactive: 1.47.

Regarding KLQKFYRQNPD [EHHADH_Y683_YF], the enrichment score is inactive: 0.922.

Regarding ILDEAYVMASM [EGFR_Y764_V769M], the enrichment score is inactive: 0.758.

For SSLMKYQQNVS [EGFEM1P_Y160_P157L], the enrichment score was inactive: 0.814.

As for PRLMLYNPTTF [EGFR_Y270_P266R_YF], the enrichment score was inactive: 1.33.

Turning to AEEKEYHAEGG [EGFR_Y869], the enrichment score is inactive: 0.599.

In another assay the target is SHP2 N-SH2 domain wild-type. Described as above. The note with it: peptide library: pTyr-Var.
Regarding VYPATYHPDHW [EFCAB12_Y544], the enrichment score was inactive: 0.881.

With IKNSGYISRFL [EIF2AK3_Y585_YF], the enrichment score was inactive: 1.31.

Regarding VYSATYHPDHW [EFCAB12_Y544_P541S], the enrichment score was inactive: 1.26.

On to AFGTVYKGLWI [EGFR_Y727], for which the enrichment score was inactive: 0.922.

On to INITIYGKTFR [EFHC1_Y177], for which the enrichment score is inactive: 1.75.

With KAEQLYIGVTV [EFHC2_Y509_E507Q], the enrichment score was inactive: 1.38.

With KLQKYYRQNPD [EHHADH_Y683], the enrichment score is inactive: 0.857.

Turning to EKLQKYYRKNP [EHHADH_Y682_Q685K], the enrichment score was inactive: 1.17.

MVTSGYKAKMI [EFR3A_Y447_T451M]: the enrichment score was inactive: 0.698.

For KAEELYIGVTV [EFHC2_Y509], the enrichment score is inactive: 1.1.

In the case of IKGNMYFENSF [EGFR_Y112_R108K_YF], the enrichment score was inactive: 1.02.

For the molecule ISTAGYSFPEL [EDAR_Y406_I408F], the enrichment score is inactive: 1.06.

Regarding FGSVDYWEKFF [EEF1AKNMT_Y16], the enrichment score is inactive: 0.952.

As for KGNMYYENSYA [EGFR_Y113_R108K], the enrichment score was inactive: 1.23.

Regarding KLQKFYRQNPD [EHHADH_Y683_YF], the enrichment score is inactive: 0.862.

Regarding ILDEAYVMASM [EGFR_Y764_V769M], the enrichment score is inactive: 0.849.

For SSLMKYQQNVS [EGFEM1P_Y160_P157L], the enrichment score was inactive: 0.887.

Regarding PRLMLYNPTTF [EGFR_Y270_P266R_YF], the enrichment score was inactive: 1.37.

Take AEEKEYHAEGG [EGFR_Y869]: the enrichment score was inactive: 0.672.

(Values after the supplement of paper PMC10369915.)
